The list shows a part of the results. At the low end of the ranking the order means little.

The target in this experiment is T1, GST-Rok (full length) (UniProt O34857).
T1 sequence: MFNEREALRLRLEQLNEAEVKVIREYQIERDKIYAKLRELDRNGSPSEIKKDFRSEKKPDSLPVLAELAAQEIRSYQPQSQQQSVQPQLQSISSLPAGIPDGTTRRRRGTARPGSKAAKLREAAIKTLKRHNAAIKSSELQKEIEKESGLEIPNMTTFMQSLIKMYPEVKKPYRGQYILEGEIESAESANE
Put plainly: protein binding microarray.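 Further: rank score from −0.5 (least bound) to 0.5 (best bound).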 To be noted: Rok is a gene silencer of Bacillus subtilis; high values mean tight binding; most listed sequences are background and not binding sites; double strand, one strand shown.
Turning to GTGCGGTA, the binding signal is -0.0045 E-score.

In the case of AAGTACAT, the binding signal was found to be 0.225 E-score.

As to CTGGCAAG, the binding signal was -0.136 E-score.

Turning to ACGTAAAA, the binding signal worked out at 0.112 E-score.

In the case of CGATCTTA, the binding signal is -0.0625 E-score.

Consider AACGGCAC, for which the binding signal is -0.0326 E-score.

Consider AGATCATC, for which the binding signal was -0.0566 E-score.

The sequence CTAATCGA yielded a binding signal of 0.122 E-score.

AACTACCC registered a binding signal of 0.292 E-score.

AGAGTTTA showed a binding signal of 0.263 E-score.

Consider AAGCACCC, for which the binding signal is -0.232 E-score.

Sequence GATCCGAA gave a binding signal of -0.0152 E-score.

As for CGCTCGAA, the binding signal was -0.139 E-score.

For the sequence AGCCGCTC, the binding signal was -0.25 E-score.

Consider TCAATACA, for which the binding signal was 0.146 E-score.

As to CTACGTCA, the binding signal was -0.138 E-score.

TCCCGACA yielded a binding signal of -0.132 E-score.

On to ATGAACGA, for which the binding signal is 0.0418 E-score.

The sequence AAACCCCT displayed a binding signal of -0.338 E-score.

AACCGGCC displayed a binding signal of -0.261 E-score.

ACGTTTAG had a binding signal of 0.18 E-score.

In the case of ACTAGGGA, the binding signal was -0.0513 E-score.

As to GAGCGTAA, the binding signal was 0.0531 E-score.

Consider CCATCTAC, for which the binding signal was 0.196 E-score.

TCCGAGGA: the binding signal was 0.0203 E-score.

As to ATAAACGA, the binding signal was 0.14 E-score.

For the sequence CTGAGCCC, the binding signal was -0.268 E-score.

As for CTCAGTGC, the binding signal is -0.107 E-score.

The sequence AGTCCGTC showed a binding signal of -0.0948 E-score.

For the sequence ATCAGGAT, the binding signal is -0.042 E-score.

For the sequence ATGAACTC, the binding signal is -0.0903 E-score.

ATGCCACA: the binding signal came out at 0.0127 E-score.

AAGGTTAT gave a binding signal of 0.00534 E-score.

Regarding GGGCTTCA, the binding signal is -0.226 E-score.

In turn, CGACGGCA returned a binding signal of -0.139 E-score.

AACGGTCC had a binding signal of -0.24 E-score.

Consider AGGAACAG, for which the binding signal was -0.0674 E-score.

Turning to GACCTCTA, the binding signal was -0.146 E-score.

TACGTAGA had a binding signal of 0.288 E-score.

As to GGTAGAAA, the binding signal came out at 0.472 E-score.

Regarding TTTTAAAA, the binding signal amounted to 0.0987 E-score.

In turn, AAACATAG gave a binding signal of 0.247 E-score.

In the case of AGGAATAT, the binding signal stood at 0.191 E-score.

CAGCACCA came in with a binding signal of -0.21 E-score.

ATTCGCGG returned a binding signal of -0.0779 E-score.

Consider TAACCTAA, for which the binding signal was 0.0383 E-score.

As to ACGTTTCG, the binding signal amounted to 0.00327 E-score.

CACATTCA displayed a binding signal of 0.0529 E-score.

Regarding ATATCGCA, the binding signal is 0.173 E-score.

For ATTCGTGC, the binding signal is 0.12 E-score.

With GATACAAA, the binding signal was determined as 0.318 E-score.

For the sequence GGTCTTGA, the binding signal was -0.171 E-score.

For ACGCTATA, the binding signal amounted to 0.173 E-score.

ACTTTGCC displayed a binding signal of -0.0651 E-score.

In turn, AAGGATAT came in with a binding signal of 0.151 E-score.

Sequence CTATCTGC came in with a binding signal of -0.0701 E-score.

CCCTATAC: the binding signal was found to be 0.0647 E-score.

On to GACAAATA, for which the binding signal came to 0.179 E-score.

Take AATCTCTA: the binding signal was 0.152 E-score.

Consider CACCGCTA, for which the binding signal was -0.117 E-score.

The sequence CGAAAGGC came in with a binding signal of -0.183 E-score.

GTCTGAGA: the binding signal was 0.0352 E-score.

The sequence AGCGAACA returned a binding signal of -0.013 E-score.

With AGCCTCCG, the binding signal was -0.44 E-score.

AGTACTTA returned a binding signal of 0.349 E-score.

Sequence CAGGTTTC had a binding signal of -0.0637 E-score.

On to CAAACTAG, for which the binding signal was found to be 0.329 E-score.

For the sequence GAAAGGTC, the binding signal is -0.217 E-score.

For the sequence CATTATTA, the binding signal amounted to 0.326 E-score.

ACCGCGTA gave a binding signal of -0.0835 E-score.

CACATGAG returned a binding signal of 0.171 E-score.

Take CACCTACG: the binding signal came out at 0.00802 E-score.

Consider GGAACACA, for which the binding signal is -0.0735 E-score.

AAGCAAAA registered a binding signal of 0.0376 E-score.

In turn, CTGGGGCC returned a binding signal of -0.376 E-score.

On to CGGGGACC, for which the binding signal is -0.351 E-score.

CATCTGTA registered a binding signal of 0.183 E-score.

The sequence AAATTGGC registered a binding signal of -1.6e-05 E-score.

Turning to GAGGTTCA, the binding signal is -0.294 E-score.

In the case of ACCAGTTA, the binding signal is 0.163 E-score.

The sequence AAGGTAGT had a binding signal of 0.354 E-score.

CGGCCTCA gave a binding signal of -0.303 E-score.

CACCAGTA: the binding signal was -0.00869 E-score.

As for CGAAGCAC, the binding signal is -0.2 E-score.

The sequence ACAGTAGT returned a binding signal of 0.296 E-score.

CCTCACGA had a binding signal of -0.14 E-score.

Turning to GGAAAGTA, the binding signal is 0.244 E-score.

For the sequence GACACTCA, the binding signal was 0.0106 E-score.

For CCGTTATC, the binding signal was 0.104 E-score.

The sequence TAATAATA returned a binding signal of 0.395 E-score.

GACTTACA yielded a binding signal of 0.0795 E-score.

As for CCCTATAG, the binding signal is -0.261 E-score.

Turning to CCACCAAG, the binding signal was -0.106 E-score.

In the case of ATTTCCTG, the binding signal was 0.0706 E-score.

As for CACGCAAC, the binding signal was -0.0388 E-score.

In the case of AAACAAGC, the binding signal was -0.041 E-score.

Consider AGAGACCC, for which the binding signal was -0.232 E-score.

With ATGGACAT, the binding signal is 0.0858 E-score.

On to ATTCAATA, for which the binding signal came out at 0.101 E-score.

TCTGATAA registered a binding signal of 0.0869 E-score.

AAGTGTCA returned a binding signal of -0.152 E-score.

Turning to AAATGAAC, the binding signal is 0.0908 E-score.

The sequence CCCACAGC showed a binding signal of -0.178 E-score.

Regarding ACAAAAGT, the binding signal turned out to be 0.146 E-score.

In turn, ATTGAAGA yielded a binding signal of 0.204 E-score.

Consider GTCAGGTA, for which the binding signal turned out to be 0.0364 E-score.

CGATCATC: the binding signal was -0.235 E-score.

ATTCCTCG: the binding signal was -0.00192 E-score.

AGATGTGC returned a binding signal of 0.115 E-score.

Turning to GCATTTAC, the binding signal turned out to be 0.207 E-score.

The record behind these values is article PMC6212790.
